# According to PubChem BioAssay AID720709 (National Center for Advancing Translational Sciences (NCATS), 2013):
# Values joined by “and” are separate entries in the source; they are usually repeats but may differ in a detail not shown here. Equal entries are not always repeated. About 520 (0.14%) of roughly 360,000 compounds were called active. The inconclusive results got no clear call from the source; some entries with a clear call stand among them for comparison. Calls follow the shape of the dose curve; as a rule, active = well fitted inhibition curve with a large enough effect; inconclusive = small, poorly fitted or top-dose-only effect; inactive = no such curve, though single readings can be large or run the other way. A potency beside an inconclusive call is a rough fit, not a confirmed value.
# Target: Rap guanine nucleotide exchange factor 3 (Homo sapiens) (UniProt O95398)
# UniProt O95398, sequence (O95398 whole entry, looked up): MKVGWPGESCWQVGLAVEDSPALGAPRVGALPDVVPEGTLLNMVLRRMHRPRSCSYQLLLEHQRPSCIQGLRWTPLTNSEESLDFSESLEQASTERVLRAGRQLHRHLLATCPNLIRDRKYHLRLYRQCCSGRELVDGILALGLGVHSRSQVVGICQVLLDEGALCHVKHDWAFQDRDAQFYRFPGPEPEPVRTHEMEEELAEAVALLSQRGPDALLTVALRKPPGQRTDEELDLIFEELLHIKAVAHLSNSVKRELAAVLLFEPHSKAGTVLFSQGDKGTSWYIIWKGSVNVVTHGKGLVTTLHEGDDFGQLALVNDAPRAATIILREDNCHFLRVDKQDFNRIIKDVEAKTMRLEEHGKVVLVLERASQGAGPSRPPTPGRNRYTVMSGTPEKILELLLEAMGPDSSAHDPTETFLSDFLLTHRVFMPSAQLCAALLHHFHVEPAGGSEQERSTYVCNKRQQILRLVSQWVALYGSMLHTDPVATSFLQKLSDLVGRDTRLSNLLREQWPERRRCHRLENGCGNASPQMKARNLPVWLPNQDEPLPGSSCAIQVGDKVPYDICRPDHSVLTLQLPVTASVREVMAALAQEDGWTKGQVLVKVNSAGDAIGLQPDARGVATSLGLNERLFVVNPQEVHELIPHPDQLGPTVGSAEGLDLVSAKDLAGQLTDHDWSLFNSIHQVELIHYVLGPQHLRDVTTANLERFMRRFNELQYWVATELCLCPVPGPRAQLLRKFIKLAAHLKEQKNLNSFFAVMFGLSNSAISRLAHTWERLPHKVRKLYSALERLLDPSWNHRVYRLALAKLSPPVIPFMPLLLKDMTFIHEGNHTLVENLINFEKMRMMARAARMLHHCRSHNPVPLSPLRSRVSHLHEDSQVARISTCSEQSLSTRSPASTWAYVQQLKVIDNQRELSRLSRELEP
# Assay: qHTS for Antagonist of cAMP-regulated guanine nucleotide exchange factor 3 (EPAC1): primary screen; also: nearly all actives have a fitted effect of over 50% in size;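 as to activity change, negative = inhibition: plate controls were vehicle for no effect and positive control for full effect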
# Settings: EPAC1 GEF assay, Rap1b-BODIPY-GDP exchange fluorescence; activity change, negative = inhibition: at 115 µM (top of the series)
# Potency is read from the fitted curve at half-maximal effect; tags tell the direction and shape of the fitted curve.
Structure (SMILES),Potency,"activity change, negative = inhibition"
CCN1CCN(Cc2ccc(NC(=O)c3cc(NC(=O)c4cc5cccc(OC)c5o4)cc(OC)c3)cc2C(F)(F)F)CC1,"inconclusive: 39.8 µM [inhibitor, full curve] and inconclusive: 22.4 µM [inhibitor, full curve]",
COc1ccc(OC)c(Nc2nc(-c3ccc(O)c(O)c3)cs2)c1,"inconclusive: 56.2 µM [inhibitor, partial curve]",
O=C(O)c1ccc(COc2ccc3ccccc3c2/C=C2/NC(=O)N(Cc3ccc(F)cc3)C2=O)cc1,"inconclusive: 35.5 µM [inhibitor, partial curve]",
CCOC(=O)C(C)Sc1nc(-c2ccco2)cc(C(F)(F)F)c1C#N (stereo not given),"inconclusive: 70.8 µM [inhibitor, single point]",
COc1ccc(-c2nc(NC(=O)Cn3ccc(C(F)(F)F)n3)sc2C)cc1,,inconclusive: -16% [inhibitor]
CC(C)C[C@H](NC(=O)c1nc[nH]c1C(=O)NCc1ccc(CNC(=O)OC(C)(C)C)cc1)C(=O)OCc1ccccc1,"inconclusive: 3.55 µM [inhibitor, full curve, poor fit]",
O=[N+]([O-])c1ccc2nc(NS(=O)(=O)c3ccc(F)cc3)sc2c1,"inconclusive: 79.4 µM [inhibitor, partial curve]",
Cc1cc(C)n2nc(C(=O)N/N=C/c3ccccc3Cl)nc2n1,"inconclusive: 89.1 µM [inhibitor, partial curve]",
O=C(NC1CCCCC1)c1ccc2[nH]c(=O)c(=O)[nH]c2c1,"inconclusive: 100 µM [inhibitor, single point]",
CC1CCCCC1NC(=O)CSc1nncn1N (stereo not given),"inconclusive: 89.1 µM [inhibitor, single point]",
CCOc1ccc2nc(N3C(=O)/C(=C/c4ccc(Cl)cc4)NC3=S)sc2c1,"inconclusive: 89.1 µM [inhibitor, single point]",
O=C(COC(=O)CCC(=O)c1ccc(F)cc1)Nc1nnc(-c2ccccc2)o1,inactive,
O=C(COc1cccnc1[N+](=O)[O-])c1ccc(Cl)s1,"inconclusive: 100 µM [inhibitor, partial curve]",
COc1ccccc1N1C(=O)c2cccc3c(Cl)ccc(c23)C1=O,inactive,
COc1ccc(CNC(=O)c2cc(C3CC3)nc3c2cnn3C(C)C)cc1OC,"inconclusive: 17.8 µM [inhibitor, single point]",
O=C(C[n+]1ccc2ccccc2c1)Nc1cc(C(F)(F)F)ccc1Cl,inactive,
O=[N+]([O-])c1cccc(COc2ccccc2CN2CCCC2)c1,"inconclusive: 89.1 µM [inhibitor, single point]",
CCOc1ccc(N2CC(C(=O)Nc3ccccc3N3CCCC3)CC2=O)cc1 (stereo not given),"inconclusive: 11.2 µM [inhibitor, full curve]",
Cn1c(SCC(=O)NC(C)(C)C)nnc1-c1ccc(C(C)(C)C)cc1,inactive,
COC(=O)c1ccccc1NC1=C/C(=N\S(=O)(=O)c2ccc(C(=O)O)cc2)c2ccccc2C1=O,active: 39.8 µM,
CCC(=O)N1CCc2cc(Br)cc(S(=O)(=O)N(C)c3ccc(OC)cc3)c21,inactive,
O=C(NCc1cccc(C(F)(F)F)c1)c1c[nH]c(=O)s1,"inconclusive: 28.2 µM [inhibitor, single point]",

Structure (SMILES),Potency,"activity change, negative = inhibition"
COc1ccc(C2CC(c3ccc4ccccc4c3OC(C)=O)=NN2C(C)=O)cc1 (stereo not given),"inconclusive: 39.8 µM [inhibitor, partial curve]",
O=C(N/N=C/c1cc(Br)c(O)c(Br)c1)c1cc2c(ccc3ccccc32)o1,active: 28.2 µM,
O=C(CCC(=O)N1CCN(S(=O)(=O)c2ccc(Cl)cc2)CC1)NC1CCCc2ccccc21 (stereo not given),"inconclusive: 89.1 µM [inhibitor, partial curve]",
CCOCCOC(=O)c1[nH]c2c(c1C)C(=O)CC(c1ccc(N(C)C)cc1)C2 (stereo not given),"inconclusive: 100 µM [inhibitor, single point]",
Cc1cc(C(=O)NCC(C)C)c2ccccc2n1,"inconclusive: 89.1 µM [inhibitor, single point]",
CCN(C(=O)COC(=O)CCCc1c[nH]c2ccccc12)c1c(N)n(Cc2ccccc2)c(=O)[nH]c1=O,inactive,
CN(C)CCNC(=O)c1cc2c(s1)-c1ccc(Cl)cc1SC2,inactive,
Cc1nc(N2C(=O)C(=O)/C(=C(/O)c3ccccc3)C2c2ccco2)sc1C (stereo not given),inactive,
CCN1C(=S)SC(=O)C1=C1C=C(C)OC(C)=C1,inactive,
O=C(COC(=O)c1c(F)cccc1F)Nc1ccc2[nH]c(=O)[nH]c2c1,,inconclusive: -30.4% [inhibitor]
CCOC(=O)c1c(C)oc2c1c(C=NCCO)c(O)c1ccccc12,"inconclusive: 100 µM [inhibitor, partial curve]",
O=c1c(O[C@@H]2O[C@H](CO)[C@@H](O)[C@H](O)[C@H]2O)c(-c2ccc(O)cc2)oc2cc(O)cc(O)c12,"inconclusive: 39.8 µM [inhibitor, full curve]",
COc1ccc(CCc2nnc(CCC(=O)N(C)Cc3ccncc3C)o2)cc1,inactive,
Cc1ccc(Nc2ncc(C(=O)NCCCN3CCN(C)CC3)c3ccccc23)cc1Cl,"inconclusive: 39.8 µM [inhibitor, partial curve]",
O=C(NC(=S)Nc1ccccn1)c1ccc(-c2ccccc2)cc1,"inconclusive: 28.2 µM [inhibitor, full curve]",
COc1ccc(C(=O)NCC(=O)N2CCCC(C)C2)cc1OC (stereo not given),"inconclusive: 20 µM [inhibitor, full curve, poor fit]",
Cc1nn(Cc2ccccc2Cl)c(C)c1NC(=O)C1C2CCC(O2)C1C(=O)O (stereo not given),"inconclusive: 79.4 µM [inhibitor, partial curve]",
CC[C@@]12C(=O)N(c3cccc(F)c3)C(=O)N1[C@H](c1ccc(Br)cc1)[C@@H]1C(=O)N(C(C)(C)C)C(=O)[C@@H]12,"inconclusive: 44.7 µM [inhibitor, partial curve]",
CCC(CO)Nc1nc(CN2CCCCC2)nc2scc(-c3ccccc3)c12 (stereo not given),"inconclusive: 3.16 µM [inhibitor, full curve, poor fit]",
COc1ccc(NC(=O)N(C)C[C@H]2Oc3ccc(NC(=O)CCN4CCOCC4)cc3C(=O)N([C@@H](C)CO)C[C@H]2C)cc1,inactive,
O=C(NCCCn1ccnc1)c1ccc(Cl)cc1[N+](=O)[O-],"inconclusive: 79.4 µM [inhibitor, partial curve]",
OCCN1CCOCCN(CCO)CCOCC1,"inconclusive: 89.1 µM [inhibitor, partial curve]",

Structure (SMILES),Potency,"activity change, negative = inhibition"
CC(=O)Nc1ccc2nc(NC(=O)CS(=O)(=O)c3ccccc3)sc2c1,"inconclusive: 79.4 µM [inhibitor, single point]",
Cc1ccc(C(=O)N2[C@@H]3CN(C)C(=O)[C@@]2(C)[C@H]2C(=O)N(C)C(=O)[C@@H]32)cc1,inactive,
Cc1cccc(NC(=S)N/N=C/C(C)c2ccccc2)c1C (stereo not given),"inconclusive: 39.8 µM [inhibitor, single point]",
CN(C(=O)c1cc2sccc2n1C)C1CCCCC1,inactive,
O=C1NC(=S)N/C1=C/c1cccn1-c1ccc([N+](=O)[O-])cc1,"inconclusive: 89.1 µM [inhibitor, single point]",
O=C(CCl)N1c2ccccc2Oc2ccc3ccccc3c21,inactive,
O=[N+]([O-])c1cccc(S(=O)(=O)NCc2ccncc2)c1,"inconclusive: 100 µM [inhibitor, single point]",
O=C1/C(=C/Nc2ccc3c(c2)OCO3)CCc2ccccc21,inactive,
O=C(NC1CCCCC1)c1cccc2c1C(=O)c1ccc(N3CCCC3)cc1S2(=O)=O,inactive,
Cc1nn(-c2ccccc2)c(C)c1C(=O)OCc1ccc(C#N)cc1,"inconclusive: 2.82 µM [inhibitor, full curve, poor fit]",
O=C(O)CC(NC(=O)Cc1ccc([N+](=O)[O-])cc1)c1ccc2c(c1)OCO2 (stereo not given),"inconclusive: 2.82 µM [inhibitor, full curve, poor fit]",
Cn1c(=O)cc(N2CCN(C(=O)c3ccco3)CC2)[nH]c1=O,"inconclusive: 39.8 µM [inhibitor, single point]",
O=C(O)c1cccc(NC(=O)c2cn(-c3ccccc3)nc2-c2cccc(Br)c2)c1,"inconclusive: 89.1 µM [inhibitor, single point]",
CCOC(=O)C1=NN(c2ccc(Cl)cc2)C(=O)C1,"inconclusive: 100 µM [inhibitor, single point]",
CC(/C=N/Nc1ccc2nncn2n1)=C\c1ccccc1,"inconclusive: 100 µM [inhibitor, single point]",
CC(NS(=O)(=O)OCC(Cl)(Cl)Cl)c1ccc(C(C)(C)C)cc1 (stereo not given),"inconclusive: 31.6 µM [inhibitor, full curve, poor fit]",
COC(=O)c1ccc(NC(=O)c2nc(S(=O)(=O)Cc3cccc(C)c3)ncc2Cl)cc1,"inconclusive: 100 µM [inhibitor, partial curve, poor fit]",
CC(=O)c1ccc(OC2(C)CCN(Cc3ccc(OC(F)(F)F)cc3)C2)cc1 (stereo not given),"inconclusive: 20 µM [inhibitor, full curve]",
CC1(C(=O)NS(=O)(=O)c2ccc(Br)cc2)CCN1C(=O)CCC1CCCC1 (stereo not given),"inconclusive: 28.2 µM [inhibitor, single point]",
COCCOC(=O)C(C#N)c1nc2ccccc2nc1N1CCN(Cc2ccccc2)CC1 (stereo not given),inactive,
O=S(=O)(NC1=NCCCCC1)c1ccc2sc(NS(=O)(=O)c3ccc4ccccc4c3)nc2c1,"inconclusive: 89.1 µM [inhibitor, single point]",
